Laboratory results: the DeepSol protein solubility set

Experiment: soluble on expression in E. coli; label from the status in PepcDB or PDB records

## MRLIPLKAAAQVGKWAAAHIVKRINEFQPTAERPFVLGLPTGGTPLATYKALIEMHKAGEVSFKHVVTFNMDEYVGLAADHPESYRSFMYNNFFNHIDIQEENINLLNGNTDDHEAECKRYEDKIKSYGKINLFMGGVGNDGHIAFNEPASSLSSRTRIKTLTEDTRIANSRFFDGDINQVPKYALTIGVGTLLDAQEIMILVTGHNKALALQAAVEGSVNHLWTVSALQLHPKAVIVCDEPSTQELKVKTVKYFTELEAKNIVGF
  soluble on expression in E. coli: soluble

## MKDIDTLISNNALWSKMLVEEDPGFFEKLAQAQKPRFLWIGCSDSRVPAERLTGLEPGELFVHRNVANLVIHTDLNCLSVVQYAVDVLEVEHIIICGHSGCGGIKAAVENPELGLINNWLLHIRDIWLKHSSLLGKMPEEQRLDALYELNVMEQVYNLGHSTIMQSAWKRGQNVTIHGWAYSINDGLLRDLDVTATNRETLENGYHKGISALSLKYIPHQ
  soluble on expression in E. coli: not soluble

## MGSDKIHHHHHHAGGHKNLPAKGDLHIPVFENVNVRFSPDTYPDNYNEADGTGVYHLVNGRIILKKITLPEYKRNVSVSLKVTLASNGDRWDKSGSCFVLPKSSAINLLTIARDGMKFPSVDSLKLEKMVGIVPGKDYLPTVELMRFMTPFGIGHYSNNNDSLSSKRRPVYIPKWESNVTWQQDITDLYPLLEGEAYVGIYIDTWTSEGYLVNADIDVKESRLACDVLPKRHVEPLMNTVYYMGQSYPDIFARRDVSTDFTVPKGAKNIRLKYIVTGHGGHSGGDEFVQKRNIISVDGKEVLNFIPWRDDCASFRRFNPATGVWLIKRLASYIGEKGYTEKEVEEPLASSDLSRSNWCPGSDVVPEEAVIGTLAPGKHTFTVSIPEAQAVDGNKLNHWLVSAYLVWEE
  soluble on expression in E. coli: not soluble

## MSALKKSFIKRKLAKKQKQNRPMPQWVRMKTGNTMKYNAKRRHWRRTKLKL
  soluble on expression in E. coli: soluble

## MTKLKCKSLRGEKKDALQKKLDEQKTELATLRVSKVTGGAASKLSKIRVVRKNIARLLTVINQTQKQELRKFYADHKYKPIDLRLKKTRAIRRRLTAHELSLRSAKQQAKSRNQAVRKFAVKA
  soluble on expression in E. coli: soluble
